This note sets out measurements from the supplement of paper PMC10037445.

Molecules are shown by their SMILES. Over roughly 2,900 compounds, “NF-kB SEAP reporter activity, fold change vs agonist alone” has its median near 0.99; the highest 2% begin near 2.6. The list shows a part of the results.

For assay [1], the system named is RAW-Dual. Kind of assay: NF-kB SEAP reporter activity, fold change vs agonist alone; higher = enhanced NF-kB activity. The following applies: library stock concentration (final ~1000-fold dilution): 10 mM. The method, boiled down:
(§1)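 RAW-Dual macrophages (50,000 cells/well in DMEM, 384-well plates) received 50 nL of library stock by pin tool, then a PRR agonist 1 h later, and were kept at 37 °C, 5% CO2. After 20 hours, supernatant was read for IRF by QuantiLuc luminescence and for NF-κB by QuantiBlue absorbance at 620 nm. Reporter activity is fold change over agonist-alone wells. Cytotoxic wells had IncuCyte confluency below 70% of agonist controls in both mask sets.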

Assay [2] has as its system RAW-Dual. Description: NF-kB SEAP reporter activity, fold change vs agonist alone; cytotoxicity flag (confluency mask): not cytotoxic; higher = enhanced NF-kB activity. The method, boiled down:
as §1

For assay [3], the system named is RAW-Dual. Kind of assay: NF-kB SEAP reporter activity, fold change vs agonist alone; cytotoxicity flag (confluency mask): cytotoxic (confluency <70% of control); higher = enhanced NF-kB activity. The method, boiled down: as §1
[4] abbreviates: cytotoxicity flag (confluency mask): not cytotoxic, agonist: Imiquimod (TLR7) […].
The mark [5] stands for this setting: cytotoxicity flag (confluency mask): not cytotoxic, agonist: MPLA (TLR4) […].
The mark [6] stands for this setting: agonist: ODN 1826 (TLR9) 0.5 ug/mL.
Where [7] appears, read: agonist: Pam2CSK4 (TLR2/6) 0.1 ug/mL.
Setting [8] is: agonist: Pam3CSK4 (TLR2/1) 0.1 ug/mL.
The mark [9] stands for this setting: cytotoxicity flag (confluency mask): cytotoxic (confluency <70% of control), agonist: Imiquimod (TLR7) […].
[10] abbreviates: cytotoxicity flag (confluency mask): cytotoxic (confluency <70% of control), agonist: MPLA (TLR4) […].

For the molecule `Cc1ccc(O)c(C(CCN(C(C)C)C(C)C)c2ccccc2)c1.O=C(O)C(O)C(O)C(=O)O` (stereo unspecified), the “NF-kB SEAP reporter activity” value worked out at 1.12 with RAW-Dual [1] (setting [4]) and 1.05 with RAW-Dual [1] (setting [5]).

For the molecule `Cc1ccc(O)c(C(CCN(C(C)C)C(C)C)c2ccccc2)c1.O=C(O)C(O)C(O)C(=O)O` (stereo unspecified) (library stock concentration (final ~1000-fold dilution): 10 mM), the “NF-kB SEAP reporter activity” value in the assay on RAW-Dual [2] (agonist: LPS (TLR4) 0.1 ug/mL) worked out at 1.35; with RAW-Dual [2] (setting [6]), 0.656; with RAW-Dual [2] (setting [7]), 0.924; in the assay on RAW-Dual [2] (setting [8]) it was 0.999.

`O=c1cc(-c2ccccc2)oc2c1ccc1ccccc12` (library stock concentration (final ~1000-fold dilution): 10 mM): the “NF-kB SEAP reporter activity” value turned out to be 0.691 in the assay with RAW-Dual [2] (agonist: LPS (TLR4) 0.1 ug/mL), 0.933 with RAW-Dual [2] (setting [6]), 0.846 in the assay on RAW-Dual [2] (setting [7]) and 0.982 in the assay with RAW-Dual [2] (setting [8]).

For `O=c1cc(-c2ccccc2)oc2c1ccc1ccccc12`, the “NF-kB SEAP reporter activity” value in the assay with RAW-Dual [1] (setting [5]) was 1.2.

Regarding `CCN(CC)CCCCNc1ncc2cc(-c3cc(OC)cc(OC)c3)c(NC(=O)NC(C)(C)C)nc2n1` (library stock concentration (final ~1000-fold dilution): 10 mM), the “NF-kB SEAP reporter activity” value is 0.324 in the assay with RAW-Dual [3] (agonist: LPS (TLR4) 0.1 ug/mL), 0.891 in the assay with RAW-Dual [3] (setting [6]), 1.72 in the assay with RAW-Dual [3] (setting [7]) and 1.56 in the assay on RAW-Dual [3] (setting [8]).

As for `CCN(CC)CCCCNc1ncc2cc(-c3cc(OC)cc(OC)c3)c(NC(=O)NC(C)(C)C)nc2n1`, the “NF-kB SEAP reporter activity” value was found to be 2.8 in the assay on RAW-Dual [1] (setting [9]) and 2.71 in the assay on RAW-Dual [1] (setting [10]).

Take `CC(C)(F)CC(NC(c1ccc(-c2ccc(S(C)(=O)=O)cc2)cc1)C(F)(F)F)C(=O)NC1(C#N)CC1` (stereo unspecified): the “NF-kB SEAP reporter activity” value with RAW-Dual [1] (setting [4]) came to 0.932; in the assay on RAW-Dual [1] (setting [5]), 1.02.

Turning to `CC(C)(F)CC(NC(c1ccc(-c2ccc(S(C)(=O)=O)cc2)cc1)C(F)(F)F)C(=O)NC1(C#N)CC1` (stereo unspecified) (library stock concentration (final ~1000-fold dilution): 10 mM), the “NF-kB SEAP reporter activity” value worked out at 0.968 in the assay with RAW-Dual [2] (agonist: LPS (TLR4) 0.1 ug/mL), 1.15 in the assay on RAW-Dual [2] (setting [6]), 0.937 with RAW-Dual [2] (setting [7]) and 0.97 with RAW-Dual [2] (setting [8]).

Take `C=CS(=O)(=O)NC1CCN(C(=O)CNc2cc(I)c(Cl)cc2OC)CC1`: the entries for the “NF-kB SEAP reporter activity” value in the assay on RAW-Dual [1] (setting [4]) and in the assay on RAW-Dual [1] (setting [5]) were 0.764 and 0.205, respectively.

Take `C=CS(=O)(=O)NC1CCN(C(=O)CNc2cc(I)c(Cl)cc2OC)CC1` (library stock concentration (final ~1000-fold dilution): 10 mM): the “NF-kB SEAP reporter activity” value with RAW-Dual [2] (agonist: LPS (TLR4) 0.1 ug/mL) was found to be 0.173; with RAW-Dual [2] (setting [6]) it was 0.35; in the assay with RAW-Dual [2] (setting [7]) it was 0.331; in the assay with RAW-Dual [2] (setting [8]), 0.142.

For the molecule `Cc1ccc(Oc2ccnc3cc(-c4cnn(C5CCNCC5)c4)ccc23)cc1` (library stock concentration (final ~1000-fold dilution): 10 mM), the “NF-kB SEAP reporter activity” value in the assay on RAW-Dual [3] (agonist: LPS (TLR4) 0.1 ug/mL) was found to be 0.433; in the assay on RAW-Dual [3] (setting [6]), 0.213; in the assay on RAW-Dual [3] (setting [7]), 0.181; in the assay on RAW-Dual [3] (setting [8]), 0.175.

`Cc1ccc(Oc2ccnc3cc(-c4cnn(C5CCNCC5)c4)ccc23)cc1`: the “NF-kB SEAP reporter activity” value with RAW-Dual [1] (setting [9]) is 0.526; in the assay with RAW-Dual [1] (setting [10]), 0.922.

For `COc1cc([C@H]2OC[C@H]3[C@@H]2CO[C@H]3c2ccc(OC)c(OC)c2)ccc1O`, the figures for the “NF-kB SEAP reporter activity” value with RAW-Dual [1] (setting [4]) and with RAW-Dual [1] (setting [5]) were 0.719 and 0.983, respectively.

In the case of `COc1cc([C@H]2OC[C@H]3[C@@H]2CO[C@H]3c2ccc(OC)c(OC)c2)ccc1O` (library stock concentration (final ~1000-fold dilution): 10 mM), the “NF-kB SEAP reporter activity” value with RAW-Dual [2] (agonist: LPS (TLR4) 0.1 ug/mL) amounted to 1.01; with RAW-Dual [2] (setting [6]), 1; in the assay on RAW-Dual [2] (setting [7]), 0.992; with RAW-Dual [2] (setting [8]) it was 1.15.
